Laboratory results as given in the supplement of paper PMC3334620.
Whole data set: some 33,000 sequences, median “E-score (-0.5 to 0.5)” near -0.017, cut for the highest 2% near 0.3. The list shows a part of the results.

target: T1, Sut1 (UniProt P53032); experiment: PBM E-score (8-mer binding enrichment) (E-score (-0.5 to 0.5)); higher = stronger / more preferred TF binding; most listed sequences are background and not binding sites; settings: protein concentration: 200 nM; construct: GST-full length
T1 sequence: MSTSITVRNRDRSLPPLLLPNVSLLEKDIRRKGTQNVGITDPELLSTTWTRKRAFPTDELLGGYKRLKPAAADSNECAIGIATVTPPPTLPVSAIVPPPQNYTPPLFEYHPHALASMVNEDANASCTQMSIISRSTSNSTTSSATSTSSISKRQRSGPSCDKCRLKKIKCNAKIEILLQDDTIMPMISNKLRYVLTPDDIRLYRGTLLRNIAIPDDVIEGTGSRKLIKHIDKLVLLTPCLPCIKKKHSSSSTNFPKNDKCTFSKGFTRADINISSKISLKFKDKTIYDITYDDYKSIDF
Outline: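 Universal all-10-mer Agilent arrays, fresh or stripped once, were converted to double-stranded form by primer extension. GST-tagged yeast transcription factors from PURExpress in vitro transcription/translation, full-length or DNA-binding domain only, were applied at about 100-200 nM and detected with fluorescent anti-GST. After masliner normalisation, the Universal PBM Analysis Suite scored each ungapped eight-base word together with its reverse complement by E-score.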

| Sequence | PBM E-score |
| --- | --- |
| TAGTACAA | 0.213 |
| CCCGCAGG | -0.147 |
| TGATCCCA | -0.0775 |
| GCTTTGAA | -0.00621 |
| ATGTAGTC | 0.18 |
| GGTAACCA | -0.174 |
| CGGAGTAC | 0.487 |
| CACTACAG | -0.00583 |
| CCATTCAG | -0.0279 |
| CAGATGCC | -0.268 |
| CGCGGGCC | 0.0313 |
| GACGGGGA | 0.00167 |
| ACGTGAAC | -0.232 |
| ATTGTGGA | 0.0202 |
| CGTGGAAC | -0.0578 |
| GATGTTAA | 0.0896 |
| CTCCGTTA | 0.335 |
| AATCAATC | 0.181 |
| ACAGATAA | 0.207 |
| AGCGTACC | -0.193 |
| GTATGCGA | 0.0317 |
| TCGCCTCA | -0.0147 |

| Sequence | PBM E-score |
| --- | --- |
| CCCGAATC | 0.0311 |
| ACACTGTA | 0.111 |
| CCTTACTA | 0.0567 |
| TCCCAGAA | -0.0934 |
| TCTCTCCA | -0.0705 |
| ATATTCGA | 0.0265 |
| ATTATTTA | 0.347 |
| AAGCGCAG | -0.103 |
| ACGTGTAA | 0.0397 |
| CATTACCA | -0.00971 |
| AGGCGGGG | -0.243 |
| ATCCTCCC | -0.236 |
| CAAGGACC | -0.139 |
| AAATGCCA | 0.058 |
| CCGTGCAC | -0.228 |
| GGCGCGAC | 0.00813 |
| AGAAAGTA | 0.153 |
| GTGCTCAA | 0.132 |
| CATCGAGG | -0.169 |
| AGTGCCCC | -0.302 |
| CCTCCCCC | -0.438 |
| CGCCATTC | 0.093 |

| Sequence | PBM E-score |
| --- | --- |
| ATCATGAT | 0.175 |
| ACGTGAAA | 0.149 |
| TAGGGTAA | 0.132 |
| ACCCACTA | 0.0761 |
| AAGGCACA | -0.0277 |
| ACGTCAAG | -0.0358 |
| GGTCATAA | 0.0894 |
| CCTACCCC | -0.105 |
| ATCTTTCG | -0.00103 |
| AACAGTGG | -0.143 |
| GATAGTAC | -0.00235 |
| CTGCCGAC | -0.31 |
| CAACCTGG | -0.0286 |
| CCCCGGAA | 0.216 |
| AAATCAGA | 0.0971 |
| ACATAAAA | 0.1 |
| ACTAACTC | 0.209 |
| ACGTCGAT | 0.0428 |
| CCACGCCC | -0.223 |
| CCCCCACA | -0.434 |
| ATTCTCCA | -0.0299 |
| AGACGGGA | -0.153 |

| Sequence | PBM E-score |
| --- | --- |
| ACTTGTCT | 0.0607 |
| AGGGCCCG | -0.184 |
| TACCATGA | -0.0343 |
| ACAGACAT | 0.0204 |
| ACGTTTGC | -0.0259 |
| GTCTTTCA | 0.00965 |
| ACCAATCA | 0.134 |
| ACACTTTA | 0.182 |
| CAATTAGC | 0.131 |
| CCGTCATA | -0.00145 |
| CTGATAAG | 0.0276 |
| AAGCGGAC | 0.12 |
| CGAGAAAC | 0.12 |
| GACCGCGC | -0.0311 |
| ATCGGGAG | 0.00129 |
| ATTCGCTG | 0.123 |
| AACCGCTT | -0.108 |
| GCGAAGTA | 0.0953 |
| CACGGTGG | -0.0763 |
| ACCGGGGC | -0.013 |
| CCACGCTC | -0.297 |
| ACAATGAG | 0.0663 |

| Sequence | PBM E-score |
| --- | --- |
| CTTCACAA | 0.047 |
| ATCGACAC | -0.103 |
| ACGGTGAC | -0.181 |
| ATATGCAG | -0.134 |
| GCTGGTCA | -0.178 |
| AGCAGTGA | -0.0355 |
| AGGGTCGA | -0.0378 |
| CCTCAAAG | -0.186 |
| ATGGTGGA | -0.145 |
| CCGTTTAG | 0.104 |
| AACTGTCT | -0.116 |
| AGTGAGTC | -0.0638 |
| ACCTCAGT | -0.1 |
| ATTTAGAG | 0.126 |
| AAGCGTTA | 0.0481 |
| CAATTTGC | -0.181 |
| GCCCTTCC | -0.181 |
| GACGCCAC | -0.3 |
| ATCGGACC | 0.353 |
| ACCCCGCG | 0.111 |
| CCCCCAAC | -0.282 |
